Results taken from the supplement of paper PMC9446081.
In all, about 39,000 compounds went through this assay and about 220 (0.56%) showed activity. Some of the results follow.

tested on: Escherichia coli K-12 BW25113; test: relative growth (OD600 normalised to plate interquartile mean) (fraction); higher = less growth inhibition, active = 0.2 or less; conditions: 50 µM; LB; incubation time: overnight (16-24 h)
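Also: static incubation at 37 °C against the wild-type strain, values averaged over two biological replicates.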

| SMILES | relative growth |
| --- | --- |
| COc1ccc(CN(C)C[C@@H]2Oc3ccc(NS(C)(=O)=O)cc3CC(=O)N([C@H](C)CO)C[C@H]2C)cc1 | inactive: 0.977 |
| Cc1ccccc1NC(=N)N=C(N)N | inactive: 1.02 |
| O=C(CN1CCN(S(=O)(=O)c2ccc(F)c(Cl)c2)CC1)N1CCNC1=O | inactive: 1.01 |
| Cc1noc(C)c1S(=O)(=O)Nc1cccc2c1O[C@H](CN(C)Cc1ccc(C(=O)O)cc1)[C@@H](C)CN([C@H](C)CO)C2=O | inactive: 0.971 |
| COc1ccc(NC(=O)Nc2ccc3c(c2)C(=O)N([C@H](C)CO)C[C@H](C)[C@@H](CN(C)C(=O)Nc2ccccc2)OCCCC[C@@H](C)O3)cc1 | inactive: 1.02 |
| C[C@@H]1CCCCO[C@H](CN(C)S(=O)(=O)c2cccs2)[C@H](C)CN([C@@H](C)CO)C(=O)c2cc(NC(=O)c3ccccc3)ccc2O1 | inactive: 1.03 |
| COc1ccc(C#Cc2cnc3c(c2)C(=O)N([C@H](C)CO)C[C@H](C)[C@H](CN(C)C(=O)NC(C)C)O3)cc1OC | inactive: 1 |
| C[C@@H]1CN([C@@H](C)CO)C(=O)c2cc(NC(=O)Cc3cn(C)c4ccccc34)ccc2O[C@@H]1CN(C)Cc1ccc(C(=O)Nc2ccccc2N)cc1 | inactive: 0.972 |
| CC(=O)N[C@@H]1C[C@H](O)[C@@H](O)CCC(=O)N[C@H](c2ccccc2)COC1=O | inactive: 0.987 |
| CC[C@@H](C)c1ccc(NC(=O)c2cc3ccccc3o2)cc1 | inactive: 1.08 |
| Cc1ccc(S(=O)(=O)N(C)C[C@H]2OCCCC[C@H](C)Oc3ccc(NC(=O)NC4CCCCC4)cc3C(=O)N([C@H](C)CO)C[C@H]2C)cc1 | inactive: 1 |
| C[C@H]1CCCCO[C@@H](CN(C)S(=O)(=O)c2cccs2)[C@@H](C)CN([C@@H](C)CO)C(=O)c2cc(NC(=O)Nc3ccc(C(F)(F)F)cc3)ccc2O1 | inactive: 0.999 |
| C[C@@H]1CCCCO[C@@H](CN(C)C(=O)Nc2ccccc2)[C@@H](C)CN([C@H](C)CO)C(=O)c2cc(NC(=O)c3ccccc3)ccc2O1 | inactive: 0.989 |
| CC(C)C[C@@H]1NC(=O)[C@H]2C[C@@H](C(=O)NCCCC[N+](C)(C)C)[C@@H](c3cccc(OCCO)c3)N2C1=O | inactive: 0.993 |
| C[C@H](CO)N1C[C@H](C)[C@H](CN(C)Cc2ccncc2)OCCCC[C@H](C)Oc2ccc(NC(=O)c3ccccc3)cc2C1=O | inactive: 0.991 |
| C[C@@H]1CN([C@@H](C)CO)C(=O)c2cc(NC(=O)Nc3ccccc3)ccc2O[C@@H](C)CCCCO[C@H]1CN(C)C(=O)CCC(F)(F)F | inactive: 0.994 |
| CN(C)c1ccc([C@@H](CN)N2CCc3ccccc3C2)cc1 | inactive: 0.966 |
| C[C@H]1CN([C@@H](C)CO)C(=O)c2cccc(NC(=O)c3ccc(-c4nccs4)cc3)c2O[C@@H]1CN(C)S(C)(=O)=O | inactive: 1 |
| C[C@@H]1CN([C@H](C)CO)C(=O)c2cc(NC(=O)Cn3cnnn3)ccc2O[C@@H]1CN(C)C(=O)Nc1ccc2c(c1)OCO2 | inactive: 1.02 |

| SMILES | relative growth |
| --- | --- |
| C[C@H]1CN([C@@H](C)CO)C(=O)Cc2cc(NC(=O)CCCCCC(=O)Nc3ccccc3N)ccc2O[C@@H]1CN(C)S(C)(=O)=O | inactive: 1.02 |
| C[C@@H]1CN([C@H](C)CO)C(=O)Cc2cc(NC(=O)NC3CCCCC3)ccc2O[C@H]1CN(C)S(C)(=O)=O | inactive: 1 |
| C[C@H]1CN([C@@H](C)CO)S(=O)(=O)c2ccc(Br)cc2O[C@@H]1CN(C)C(=O)c1cccnc1 | inactive: 0.972 |
| O=C(C[C@H]1CC[C@@H]2[C@H](COC[C@@H](O)CN2C(=O)C2CC2)O1)NCc1ccncc1 | inactive: 0.983 |
| C[C@H](CO)N1C[C@H](C)[C@@H](CN(C)S(=O)(=O)c2ccccc2)OCCCC[C@H](C)Oc2ccc(NC(=O)c3ccccc3)cc2C1=O | inactive: 1.02 |
| C[C@@H]1CN([C@@H](C)CO)C(=O)c2cc(NC(=O)C3CCCCC3)ccc2O[C@@H](C)CCCCO[C@H]1CN(C)S(=O)(=O)c1ccc(Cl)cc1 | inactive: 1.04 |
| COc1ccccc1NC(=O)N(C)C[C@H]1Oc2cc(Br)ccc2S(=O)(=O)N([C@@H](C)CO)C[C@@H]1C | inactive: 0.996 |
| COc1cccc(OC)c1C(=O)NN | inactive: 0.975 |
| CO[C@@H]1CN(C)C(=O)c2ccc(NS(C)(=O)=O)cc2OC[C@H](C)N(C(=O)c2ccc3c(c2)OCO3)C[C@@H]1C | inactive: 1.02 |
| C[C@@H]1CN([C@@H](C)CO)C(=O)Cc2cc(NC(=O)Nc3ccc(F)cc3)ccc2O[C@H]1CN(C)Cc1ccc(-c2ccccc2)cc1 | inactive: 1.06 |
| NCc1ccc(-n2cccn2)cc1 | inactive: 0.97 |
| C[C@H]1CN([C@@H](C)CO)S(=O)(=O)c2ccc(C#CCN(C)C)cc2O[C@@H]1CN(C)Cc1ccc(F)cc1 | inactive: 0.983 |
| C[C@@H]1CN([C@@H](C)CO)C(=O)c2ccccc2-c2ccccc2CO[C@@H]1CN(C)C(=O)Nc1cccc(Cl)c1Cl | inactive: 0.991 |
| CC(C)NC(=O)Nc1ccc2c(c1)C(=O)N([C@H](C)CO)C[C@H](C)[C@H](CN(C)Cc1ccc(C(=O)O)cc1)O2 | inactive: 1.02 |
| O=C(C[C@H]1C[C@@H]2c3cc(NC(=O)c4ccc5c(c4)OCO5)ccc3O[C@@H]2[C@H](CO)O1)NCc1ccccn1 | inactive: 0.922 |
| C[C@@H]1CCCCO[C@H](CN(C)C(=O)Nc2cccc3ccccc23)[C@@H](C)CN([C@H](C)CO)C(=O)c2cc(NS(=O)(=O)c3cn(C)cn3)ccc2O1 | inactive: 0.998 |
| C[C@H]1CN([C@@H](C)CO)C(=O)c2cc(NC(=O)CCN3CCOCC3)ccc2O[C@@H]1CN(C)S(=O)(=O)c1ccc(Cl)cc1 | inactive: 0.996 |
| C[C@@H]1CCCCO[C@@H](CN(C)Cc2ccc3c(c2)OCO3)[C@@H](C)CN([C@@H](C)CO)C(=O)c2cc(NC(=O)NC3CCCCC3)ccc2O1 | inactive: 1 |
| C[C@@H]1CN([C@@H](C)CO)C(=O)Cc2cc(NC(=O)c3ccncc3)ccc2O[C@H]1CN(C)Cc1ccncc1 | inactive: 0.991 |
